Results on 90 compounds are retold here after publication PMC4336329 (PLoS ONE, 2015).

In all, about 310,000 compounds went through this assay and about 2,200 (0.71%) showed an effect of 50% or more. Effects have a minus sign here. This is one part of the list.

Chain of human ether-à-go-go-related gene (hERG) potassium channel (Q12809 whole entry, looked up): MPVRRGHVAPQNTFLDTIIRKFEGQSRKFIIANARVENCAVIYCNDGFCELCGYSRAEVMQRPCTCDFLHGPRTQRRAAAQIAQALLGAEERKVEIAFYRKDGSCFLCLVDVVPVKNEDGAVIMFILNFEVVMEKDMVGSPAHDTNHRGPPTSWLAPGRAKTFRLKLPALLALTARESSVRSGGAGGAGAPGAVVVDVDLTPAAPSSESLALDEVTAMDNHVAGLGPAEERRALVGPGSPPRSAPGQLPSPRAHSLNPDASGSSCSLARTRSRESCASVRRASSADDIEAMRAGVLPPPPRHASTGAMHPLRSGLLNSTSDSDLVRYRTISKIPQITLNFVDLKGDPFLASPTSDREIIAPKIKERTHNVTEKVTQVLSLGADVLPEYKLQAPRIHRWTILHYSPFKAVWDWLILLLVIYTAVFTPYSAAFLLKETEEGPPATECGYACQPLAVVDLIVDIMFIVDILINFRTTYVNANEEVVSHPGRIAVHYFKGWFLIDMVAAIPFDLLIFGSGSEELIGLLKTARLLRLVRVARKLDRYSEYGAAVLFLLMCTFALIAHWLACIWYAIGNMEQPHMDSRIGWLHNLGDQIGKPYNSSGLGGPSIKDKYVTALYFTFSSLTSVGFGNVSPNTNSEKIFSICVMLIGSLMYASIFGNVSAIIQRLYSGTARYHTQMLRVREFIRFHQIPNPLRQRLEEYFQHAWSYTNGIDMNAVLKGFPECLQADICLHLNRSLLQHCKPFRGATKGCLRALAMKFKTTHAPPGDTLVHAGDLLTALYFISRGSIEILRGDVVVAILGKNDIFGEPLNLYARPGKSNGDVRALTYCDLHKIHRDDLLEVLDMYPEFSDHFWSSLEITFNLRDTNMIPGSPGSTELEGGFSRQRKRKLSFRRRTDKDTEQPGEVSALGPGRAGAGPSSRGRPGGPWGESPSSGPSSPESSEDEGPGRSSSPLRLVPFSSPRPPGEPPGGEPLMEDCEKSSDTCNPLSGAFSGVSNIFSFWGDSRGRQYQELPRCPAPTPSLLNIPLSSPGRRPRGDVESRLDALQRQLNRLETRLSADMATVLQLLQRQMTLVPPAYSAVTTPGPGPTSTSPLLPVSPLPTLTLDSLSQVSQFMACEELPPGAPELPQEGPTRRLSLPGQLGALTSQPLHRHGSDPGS

The assay concerns the target human ether-à-go-go-related gene (hERG) potassium channel (human, UniProt Q12809). In words: primary screen, population patch clamp on CHO cells stably expressing hERG.
In the case of `CCC(=O)c1ccc(OCC(O)CN2CCN(c3ccc(F)cc3)CC2)cc1` (stereo not drawn), the “hERG current change (%, negative = inhibition) at 1uM” value was -15.1%. Under `CCCn1ncc(CN2CCC(n3nccc3NC(=O)c3ccccc3Cl)CC2)c1C` stands -47.6%. Under `Nn1c(COc2cccc(Br)c2)nnc1SCC(=O)N1CCc2ccccc2C1` stands 3.67%; under `C/C(N)=C(/C#N)C(=O)COC(=O)Cc1coc2ccc3ccccc3c12`, 22.8%. Under `Cc1ccc(C(=O)Nc2nncs2)cc1S(=O)(=O)N1CCOCC1` stands -2.31%; under `COc1ccccc1OCCn1c(C)c(C=O)c2ccccc21`, 11%. On to `COc1ccc(NC(=S)N2CCN(C/C=C/c3ccccc3)CC2)c(OC)c1`, for which the “hERG current change (%, negative = inhibition) at 1uM” value is recorded as -32.9%. Under `COc1ccc(C(=O)c2c[nH]c(C(=O)NCc3ccco3)c2)cc1` stands 1.11%; under `O=C(N1CCCCCC1)n1c(Cc2ccccc2)nc2ccccc21`, -0.756%. Under `COc1ccc(C(=O)N2CC(=O)N(CCc3ccccc3)C(=O)C2)cc1OC` stands 9.3%; under `O=C(COC(=O)/C=C/c1ccco1)Nc1ncc(C(F)(F)F)cc1Cl`, -0.739%; under `COc1cc(C(=O)O)cc(NC(=O)c2cccs2)c1OC`, 13.4%. Under `Cc1ccc(C)c(NC(=O)C(Sc2cccc[n+]2[O-])c2ccccc2)c1` (stereo not drawn) stands 3.72%.

For the compound `COCCCn1c(-c2ccc(OC)cc2)cc(C(=O)NC2CCCCCCC2)c1C`, the “hERG current change (%, negative = inhibition) at 1uM” value is 0.513%. Under `CCOC(=O)c1cnc(-n2nc(C)cc2C)[nH]c1=O` stands -19.8%.

For `CCc1nnc(NC(=O)CSC(=S)N2CCOCC2)s1`, the “hERG current change (%, negative = inhibition) at 1uM” value worked out at 13%. Under `O=C(O)c1ccc2c(c1)C(=O)N(C(Cc1ccc(O)cc1)C(=O)O)C2=O` (stereo not drawn) stands 15.7%; under `CS(=O)(=O)N1CCN(c2ccccc2NC(=O)C(c2ccccc2)c2ccccc2)CC1`, 12%. With `CCCc1cc(C(=O)Nc2nccs2)cs1`, the “hERG current change (%, negative = inhibition) at 1uM” value was 4.77%.

In the case of `CCN(Cc1cc(=O)[nH]c2ccccc12)C(=O)C(C)C`, the “hERG current change (%, negative = inhibition) at 1uM” value came out at 5.42%.

With `CCOC(=O)N1CCN(C(=O)c2cc(COc3ccc(F)cc3F)on2)CC1`, the “hERG current change (%, negative = inhibition) at 1uM” value is on record as 11.3%. Under `COc1cccc(C(c2c(N)n(C)c(=O)n(C)c2=O)C(C)[N+](=O)[O-])c1` (stereo not drawn) stands 12.8%; under `CCN(CC)S(=O)(=O)c1ccc(N2CCCC2)c(NC(=O)c2ccccc2OC)c1`, -28.6%.

Consider `O=C(Cn1c(=O)n(-c2ccc(F)cc2)c(=O)c2sccc21)N1CCCC1`, for which the “hERG current change (%, negative = inhibition) at 1uM” value amounted to 1.4%. Under `Cc1cccc(C)c1NC(=O)N1CC(C)OC(C)C1` (stereo not drawn) stands 20.8%; under `CCCn1c(=O)c2ccccc2n2c(SCc3nnc(-c4ccccc4Br)o3)nnc12`, 7.61%; under `Cc1c(C)n(C)c2ccc(C(=O)NCCc3ccco3)cc12`, 8.95%.

For `Cc1cc2cc(CN(CCN(C)C)C(=S)NCc3ccco3)c(=O)[nH]c2cc1C`, the “hERG current change (%, negative = inhibition) at 1uM” value is reported as -5.57%. `Cc1ccc(C(=O)NC(=S)N(C)Cc2ccccc2)cc1`: the “hERG current change (%, negative = inhibition) at 1uM” value worked out at 12.1%.

`O=C(Cc1ccccc1)NCC1CCCO1` (stereo not drawn): the “hERG current change (%, negative = inhibition) at 1uM” value was determined as 8.6%. Under `COc1ccccc1Cn1c(=S)[nH]c2cc(C(=O)NCCN(C)C)ccc2c1=O` stands 10%; under `O=C(CC1C(=O)NCCN1Cc1cccc(Oc2ccccc2)c1)NCCc1ccccn1` (stereo not drawn), 9.09%. Under `COC(=O)CC1=NN(c2nc3ccccc3s2)C(=O)/C1=C/N(C)C` stands -0.621%; under `COc1ccc(N/C=C/C(=C(C#N)C#N)N(C)C)cc1`, 21.6%. Under `Oc1ccc(/C=C/c2cnccn2)cc1` stands 5.1%; under `Cc1ccc(C(=O)N2CCC(C(N)=O)CC2)cc1C`, 7.93%; under `CC(C)(NC(=O)N1CCOCC1)c1cccc(C(C)(C)NC(=O)N2CCOCC2)c1`, 14.4%. In the case of `CCOC(=O)c1[nH]ncc1CN1CCCC(C(=O)c2cccc(OC(C)C)c2)C1` (stereo not drawn), the “hERG current change (%, negative = inhibition) at 1uM” value is given as -22%. Under `N#C/C(=C\c1ccc(OC(=O)c2ccc(Cl)s2)cc1)c1nc2ccccc2[nH]1` stands 7.15%; under `CC(C)(C)c1nnc(NC(=O)C2CCN(c3ncccn3)CC2)s1`, 4.7%.

For the compound `COc1cccc(CC2(CO)CCN(S(=O)(=O)c3ccc(OC)cc3OC)CC2)c1`, the “hERG current change (%, negative = inhibition) at 1uM” value is given as 8.91%. Under `O=C(CSc1nnnn1C1CC1)Nc1ccc(S(=O)(=O)N2CCOCC2)cc1` stands 13.1%.

Take `O=C(Nc1ccc(S(=O)(=O)N2CCCCC2)cc1)c1cnccn1`: the “hERG current change (%, negative = inhibition) at 1uM” value was found to be 11.5%. Under `CC(C)(C)NC(=O)NC(=O)CSc1nnc2ccccn12` stands 3.36%; under `CCOc1ccc(C(CC(=O)O)NC(=O)c2ccco2)cc1OC` (stereo not drawn), 5.24%. Under `O=C(/C=C/c1ccccc1)N1CCN(C(=O)c2ccco2)CC1` stands -13.1%; under `O=C(O)Cc1sc(NCCc2ccccc2)nc1-c1ccc(F)cc1`, 9.04%; under `CC(OC(=O)CNC(=O)c1ccc(Cl)cc1)C(=O)NC1CCCCC1C` (stereo not drawn), 11.8%. Take `Cc1ccc(NC(=O)CCn2cnc3ccccc3c2=O)cc1`: the “hERG current change (%, negative = inhibition) at 1uM” value was determined as 14.8%.

On to `Cc1cccc(N2CCN(C(=O)COCc3cc(-c4ccc5c(c4)OCO5)on3)CC2)c1C`, for which the “hERG current change (%, negative = inhibition) at 1uM” value is recorded as 8.3%. Under `Cc1onc(-c2ccccc2Cl)c1C(=O)Nc1ccc(N2CCOCC2)cc1` stands 4.17%.

Take `Cc1cc(C)c2cc(CN(Cc3nnnn3Cc3ccc(F)cc3)C3CCCC3)c(=O)[nH]c2c1`: the “hERG current change (%, negative = inhibition) at 1uM” value is recorded as -2.73%. Under `CN1CCN(C(=O)CCN2C(=O)/C(=C\c3ccc(Cl)cc3Cl)SC2=S)CC1` stands 13.9%; under `O/N=C/c1cn(-c2ccccc2)nc1-c1ccccc1`, 9.64%; under `CCOC(=O)c1ccccc1NC(=O)CCNC(=O)Cn1cnc2ccccc2c1=O`, 11.8%.

For `C=CCNC(=S)NNC(=O)CCC(O)COCCC(C)C` (stereo not drawn), the “hERG current change (%, negative = inhibition) at 1uM” value is given as 6.06%.

Regarding `O=c1[nH]c(/C=C/c2ccccc2Cl)nc2ccccc12`, the “hERG current change (%, negative = inhibition) at 1uM” value is 4.63%.

For `O=C(NCCOc1cccnc1)C1CCC(=O)N(Cc2ccccc2F)C1` (stereo not drawn), the “hERG current change (%, negative = inhibition) at 1uM” value came out at 10.6%. With `COc1ccc(NC(=O)C(C)N2c3cccc4cccc(c34)S2(=O)=O)cc1` (stereo not drawn), the “hERG current change (%, negative = inhibition) at 1uM” value is -7.5%.

On to `O=C1/C(=C\c2ccc(Cl)cc2Cl)N2CCC1CC2`, for which the “hERG current change (%, negative = inhibition) at 1uM” value came to 14.5%. Under `CN(Cc1ccco1)S(=O)(=O)c1cc(F)ccc1CN1C(=O)c2cccnc2C1=O` stands 15.9%. Under `CCOC(=O)C1CCCN(CC(O)COc2ccc(OC)cc2C(C)(C)C)C1` (stereo not drawn) stands -22.1%; under `CCCCNC(=O)Nc1nnc(-c2ccccc2)o1`, -2.58%; under `C[C@H](NC(=O)C1CCN(S(=O)(=O)c2ccccc2)CC1)C(=O)NCc1ccccn1`, 26.3%. Under `CCN1C(=O)[C@@H]2Cc3c([nH]c4ccccc34)C(c3cc(OC)c(OC)c(OC)c3)N2C1=S` (stereo partly drawn) stands -8.76%; under `COc1ccccc1Oc1c(C)oc2c(CN3CCOCC3)c(O)ccc2c1=O`, 12.6%; under `CCOc1ccc2[nH]c3c(NCCO)ncnc3c2c1`, 14.6%. As to `CCc1c(C(=O)N/N=C/c2ccsc2)csc1C`, the “hERG current change (%, negative = inhibition) at 1uM” value was -0.292%.

With `O=C(O)C1CCCCC1C(=O)NCc1ccc2c(c1)OCO2` (stereo not drawn), the “hERG current change (%, negative = inhibition) at 1uM” value is 7.56%.

Regarding `CCc1nnc(NC(=O)CCc2ccccc2OC)s1`, the “hERG current change (%, negative = inhibition) at 1uM” value is given as 10%.

As for `O=C(CSc1nnc(-c2ccc(F)cc2)n1-c1ccccc1)NCCN1C(=O)CSC1=O`, the “hERG current change (%, negative = inhibition) at 1uM” value is 9.97%. Under `CCOC(=O)c1ccc(-c2ccc(/C=C(\C#N)C(=O)NCc3cccs3)o2)cc1` stands 28.4%. Under `CCOc1ccc2[nH]c(=O)c(CN(Cc3ccccc3OC)C(=O)c3ccccc3)cc2c1` stands -0.785%. Under `COc1ccc(Cl)cc1NC(=O)CN(C(=O)c1ccco1)C1CCCCC1` stands 15.8%; under `O=[N+]([O-])c1ccc(N2CCN(CC3CCCCC3)CC2)cc1`, -23%. For the compound `CN1CCN(CC/C=C2/c3ccccc3Sc3ccc(S(=O)(=O)N(C)C)cc32)CC1`, the “hERG current change (%, negative = inhibition) at 1uM” value is -14.7%. Under `CSc1ccc2c(c1)C(N1CCN(C)CC1)Cc1ccccc1S2.O=C([O-])/C=C\C(=O)[O-]` (stereo not drawn) stands 5.38%; under `Cc1ccc(CC(=O)NCCN2CCOCC2)cc1`, 16.8%.

`CCOC(=O)c1ccc(NC(=O)N2CCc3ccccc3C2)cc1`: the “hERG current change (%, negative = inhibition) at 1uM” value is -1.49%. Under `c1ccc(-c2cn3nc4c(nc3n2)CCCC4)cc1` stands 3.18%; under `CCOC(=O)CCSc1nc(C)c2cc(OC)ccc2n1`, 4.02%; under `COc1ccc(-c2cc(=O)oc3cc(OC(C)C(=O)NCc4ccccn4)ccc23)cc1` (stereo not drawn), -17.2%. On to `COc1ccc(C(C)(C)C)cc1S(=O)(=O)N1CCN(C)CC1`, for which the “hERG current change (%, negative = inhibition) at 1uM” value amounted to 3.43%. Under `CCOC(=O)c1cnc2c(C)cccc2c1NCCCN1CCOCC1` stands -37.3%; under `O=C(N/N=C/c1ccc(N2CCOCC2)o1)c1cccc(F)c1`, 7.72%. For the compound `COc1ccc(OC)c2c(C)cc(C)nc12`, the “hERG current change (%, negative = inhibition) at 1uM” value worked out at 7.2%. Take `Cc1c(Cl)cccc1N=c1c([N+](=O)[O-])nn(-c2ccccc2)n1O`: the “hERG current change (%, negative = inhibition) at 1uM” value is listed as -5.38%.

Take `CC(C)(C)OC(=O)CNC(=O)c1nc[nH]c1C(=O)NCC(=O)OC(C)(C)C`: the “hERG current change (%, negative = inhibition) at 1uM” value amounted to 9.52%.

In the case of `O=C1CN(C(=O)CNC(=O)c2ccccc2Cl)c2ccccc2N1`, the “hERG current change (%, negative = inhibition) at 1uM” value came to 6.34%. Under `O=C(CC1(O)C(=O)Nc2ccc(Br)cc21)c1ccc2c(c1)OCO2` (stereo not drawn) stands 12.4%.
